Measured values from the supplement of paper PMC3334620.
Over roughly 33,000 sequences, “E-score (-0.5 to 0.5)” has its median near -0.054; the highest 2% begin near 0.35. The list shows a part of the results.

What follows are sequences tested against T1, Stb5 (UniProt P38699) (assay: PBM E-score (8-mer binding enrichment) (E-score (-0.5 to 0.5)); higher = stronger / more preferred TF binding; most listed sequences are background and not binding sites). Settings: protein concentration: 200 nM; construct: GST-full length.
T1 sequence: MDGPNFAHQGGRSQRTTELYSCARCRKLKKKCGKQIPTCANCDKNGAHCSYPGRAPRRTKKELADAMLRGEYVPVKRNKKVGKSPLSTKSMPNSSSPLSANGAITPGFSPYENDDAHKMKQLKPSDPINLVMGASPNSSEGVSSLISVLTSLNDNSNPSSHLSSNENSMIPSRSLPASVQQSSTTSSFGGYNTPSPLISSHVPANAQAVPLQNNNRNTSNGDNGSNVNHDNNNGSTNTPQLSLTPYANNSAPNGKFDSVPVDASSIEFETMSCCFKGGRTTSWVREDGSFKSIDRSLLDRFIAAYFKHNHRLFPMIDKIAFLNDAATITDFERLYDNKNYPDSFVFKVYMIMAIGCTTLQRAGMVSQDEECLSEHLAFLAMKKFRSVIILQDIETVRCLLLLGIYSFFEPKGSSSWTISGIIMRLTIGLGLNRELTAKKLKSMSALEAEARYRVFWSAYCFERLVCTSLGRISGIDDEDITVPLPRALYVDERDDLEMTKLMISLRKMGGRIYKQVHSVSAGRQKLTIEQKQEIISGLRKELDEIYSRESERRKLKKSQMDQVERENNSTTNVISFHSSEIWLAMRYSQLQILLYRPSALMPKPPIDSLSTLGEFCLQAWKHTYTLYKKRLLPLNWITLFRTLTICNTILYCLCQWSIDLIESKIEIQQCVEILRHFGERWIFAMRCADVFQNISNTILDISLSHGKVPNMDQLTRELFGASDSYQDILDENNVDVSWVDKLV
In short: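 Universal all-10-mer Agilent arrays, double-stranded by primer extension on fresh or once-stripped slides, were probed with about 100-200 nM GST-tagged yeast transcription factors made by PURExpress. Fluorescent anti-GST detected bound protein, and masliner normalised the scans. E-scores from the Universal PBM Analysis Suite were given to each ungapped eight-base word pooled with its reverse complement.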

Sequence | PBM E-score
CTCCCCTA | -0.0447
ATTTTACA | -0.0811
CGCTTGCA | 0.045
CGCCGCAG | 0.299
CAACGGAC | 0.342
ATGGGCCC | 0.116
CTTCGTGC | 0.0241
AGGGCGTC | 0.118
TCCCGACA | 0.291
AAAGAATA | -0.0838
GTCCTCTA | -0.159
AGACTTCA | -0.343
AATAAGAA | 0.00234
GACTCCCA | -0.206
GCGTTATA | 0.111
GACACGAA | 0.0734
GGGTCGTA | 0.00669
CATGGGTC | -0.19
GAATCAAC | -0.0937
AGCTCTAG | -0.152
TACGTGCA | -0.21
CACATCAA | -0.259
AGAAGGAT | -0.253
CCTTGAAG | -0.133
ACCCCATA | 0.0013

Sequence | PBM E-score
TAGGGGAA | -0.275
ACAGTCCC | 0.11
CCGAATCA | 0.172
GCATGCAC | -0.0844
GCCATTAA | -0.0877
AAGTGAAG | -0.22
AAACGGCT | -0.0754
ATGGAGTG | -0.143
ACTATCAT | -0.0614
AGGTTAGA | -0.0614
AGTTCACA | -0.06
TCAATCAA | -0.224
ATCCCCCC | -0.0842
CGTATATC | 0.107
ACCGCAAC | 0.225
CGTGCCTA | -0.109
CTCAGGCC | -0.175
CTTTTCCA | 0.0112
ACTCCGCT | 0.392
AGTACTCG | -0.186
CGCCAGGC | 0.168
ATCGTAGA | -0.214
TTATCGAA | 0.104
CTAACTCC | 0.288
CTTACGTA | -0.101

Sequence | PBM E-score
AACGAAAA | -0.0575
AACGAGAA | 0.0265
TAGTCGGA | 0.355
ACCCGAGT | 0.136
ATAAGAAA | -0.00881
ACTAACCG | 0.128
AACTTTCC | 0.0165
TACCTACA | -0.284
ACTCGGGC | 0.0283
GTTGTCGA | -0.192
GATGCACA | -0.223
ATTTCCCC | 0.234
AGCACATA | -0.00917
ATGATGTA | -0.119
ATGCTTTC | -0.185
ACGGACCG | 0.297
GAACTTGA | -0.0184
AAAAGAAG | -0.0941
GGTATTTA | 0.302
GATGATCC | 0.0218
CTATAGAA | -0.136
AGGTGGTG | -0.185
CTAACCGC | 0.0995
CCGGAGAG | 0.13
ACAGCCGT | 0.0168

Sequence | PBM E-score
CGTAGGAA | -0.112
AGTTTCGA | -0.17
CCATTGGC | -0.178
ATTAGCAG | 0.0454
TCGCGCCA | -0.0166
ATTACTAC | -0.152
AGACCTGG | -0.234
TCATTAGA | 0.0392
CGGCTCGA | 0.113
ATGGATGG | -0.171
ATTACCGG | 0.371
CATCCTGG | -0.214
TCTAGTAA | -0.0555
ACGGAGAC | 0.272
GCTAGCGA | -0.256
ACAAAGCG | -0.0231
GATTAACA | -0.0292
ACCGAACC | 0.194
ATGCTAGA | -0.263
GGCGTATA | 0.271
AAGTTATA | 0.0559
CTAGTTCA | -0.21
AGGGATAG | -0.0908
AGATCGGC | 0.337
AGATGTAG | -0.0297

Sequence | PBM E-score
CTTTTTGC | -0.0672
AGTCACAC | -0.207
TACTGATA | -0.13
GCGCGTAA | -0.034
ATTTAGAC | 0.0407
AAAGAACC | 0.112
AAAGGCCT | -0.115
GCAGCGTA | -0.126
AACTTTCA | -0.0896
CTGACCGA | -0.0342
GCTCTCCA | -0.21
GCTGCTGA | -0.114
AGGTGCGA | 0.0754
AGAAAGAA | -0.0975
CTGGAAGA | -0.142
ATTTTTCC | -0.0446
AACTGCGA | 0.219
AACCCCAG | -0.154
AACCCCCG | 0.401
TCATTCGA | -0.111
TAGATAGA | -0.0546
AAACCGGG | 0.0888
CCAACGCC | 0.0804
ATTGCAAC | 0.00777
CAAGCTGG | -0.259

Sequence | PBM E-score
GCGGGAAC | 0.225
GATGGTGA | -0.00517
CCCACCAC | -0.182
GACTGCGA | -0.0122
AACCTCCA | -0.208
CACGAACG | 0.0355
CGCTGGAG | -0.0255
CTAACGTC | 0.00376
GAGTGACA | -0.0475
GAGGACTA | -0.0604
ATCTACCA | -0.151
ACCGCCTG | 0.25
ATGCCTAA | -0.163
AGTCTTGA | -0.213
AACTGGAC | -0.0509
ACTGGGGA | -0.161
ATACGCAA | -0.165
CGATTCAC | 0.0199
AAGAAGCG | 0.027
AGGACACG | 0.0109
AATTATCA | 0.127
AATAAGCA | -0.0559
GAACGAGC | -0.183
AGGGTCGC | -0.167
CCGGGCTC | 0.166

Sequence | PBM E-score
ACGCCAAG | -0.28
GCTGGGCA | -0.226
TAGGCAGA | 0.0374
AGCGTGAA | -0.178
AGGTCCTC | -0.0933
ATTTACGA | 0.0377
GAGTGATC | -0.0228
ATCTGACC | 0.118
AAGACCGC | 0.443
ACCAACTA | -0.0283
TCCGGAGA | 0.185
CATCATCG | -0.0164
CCACCTAG | -0.0958
CTGGATTA | 0.0677
TCGCTGCA | -0.00396
TTACACAA | 0.0604
CTGTAGAC | -0.0544
CGCGCGCG | 0.213
ATACTCGA | -0.172
GAGCGCGA | -0.0254
CACGGAAG | 0.104
ATGACTTA | -0.243
